{"source": "the supplement of paper PMC4466236", "note": "Whole data set: some 33,000 sequences, median “E-score (dimensionless, -0.5 to 0.5)” near -0.058, cut for the highest 2% near 0.35. The list shows a part of the results."}
{"system": "MvaT", "assay": "PBM 8-mer E-score (mean of HK and ME arrays) (E-score (dimensionless, -0.5 to 0.5)); higher = stronger relative binding preference; most listed sequences are background and not binding sites", "method_in_brief": "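Full-length P. aeruginosa MvaT carrying an N-terminal glutathione S-transferase tag was tested by protein binding microarray following a previously described protocol. Two universal double-stranded 60-mer arrays, ME and HK, were used, each with a constant 25-mer primer region and a variable 35-mer region covering all 8-mers. The rank-based E-score is the mean of the two arrays, parsed with a custom script. Its range runs from -0.5 to 0.5 for each 8-mer.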"}
{"sequence": "GCATTGAA", "PBM 8-mer E-score": 0.098}
{"sequence": "CGTAAAAC", "PBM 8-mer E-score": 0.0493}
{"sequence": "CGACATTA", "PBM 8-mer E-score": 0.185}
{"sequence": "GTAGCCTA", "PBM 8-mer E-score": -0.0873}
{"sequence": "ACTCTGAC", "PBM 8-mer E-score": -0.0817}
{"sequence": "AGCCAGAC", "PBM 8-mer E-score": -0.0924}
{"sequence": "GGCCTAGA", "PBM 8-mer E-score": -0.27}
{"sequence": "AGGTAGTC", "PBM 8-mer E-score": -0.145}
{"sequence": "GCCGACCA", "PBM 8-mer E-score": -0.0641}
{"sequence": "CATAGGGG", "PBM 8-mer E-score": -0.18}
{"sequence": "GGACGCCA", "PBM 8-mer E-score": -0.112}
{"sequence": "CGAGCCGC", "PBM 8-mer E-score": -0.302}
{"sequence": "ATCCTAAC", "PBM 8-mer E-score": 0.093}
{"sequence": "AGGTAAGG", "PBM 8-mer E-score": -0.193}
{"sequence": "AGACTACT", "PBM 8-mer E-score": 0.172}
{"sequence": "ACAAATGA", "PBM 8-mer E-score": 0.115}
{"sequence": "AACATGGT", "PBM 8-mer E-score": -0.0293}
{"sequence": "GGAGCTAA", "PBM 8-mer E-score": -0.146}
{"sequence": "GATAGGCA", "PBM 8-mer E-score": -0.0519}
{"sequence": "CAAACTCC", "PBM 8-mer E-score": -0.0931}
{"sequence": "TGAGCTAA", "PBM 8-mer E-score": -0.0684}
{"sequence": "AGAGACAA", "PBM 8-mer E-score": -0.0697}
{"sequence": "AGGATTAA", "PBM 8-mer E-score": 0.118}
{"sequence": "CGCGTGAA", "PBM 8-mer E-score": 0.0803}
{"sequence": "ATGGTCAG", "PBM 8-mer E-score": -0.138}
{"sequence": "GAACTGGA", "PBM 8-mer E-score": -0.161}
{"sequence": "TATGAAAA", "PBM 8-mer E-score": 0.282}
{"sequence": "TACCGAAA", "PBM 8-mer E-score": 0.0367}
{"sequence": "TACACAGA", "PBM 8-mer E-score": 0.104}
{"sequence": "CCTTACAC", "PBM 8-mer E-score": 0.0641}
{"sequence": "AACAAGCG", "PBM 8-mer E-score": 0.0541}
{"sequence": "ATGCTTAG", "PBM 8-mer E-score": -0.000164}
{"sequence": "AAGAAGCT", "PBM 8-mer E-score": -0.0873}
{"sequence": "CTTAGCGA", "PBM 8-mer E-score": -0.029}
{"sequence": "GCGTTGCC", "PBM 8-mer E-score": -0.179}
{"sequence": "CAATGTCG", "PBM 8-mer E-score": -0.08}
{"sequence": "AATGAGTC", "PBM 8-mer E-score": -0.048}
{"sequence": "GACCATTA", "PBM 8-mer E-score": 0.175}
{"sequence": "ACTTACAC", "PBM 8-mer E-score": 0.232}
{"sequence": "AGCGCCTG", "PBM 8-mer E-score": -0.312}
{"sequence": "AAGCTCGG", "PBM 8-mer E-score": -0.135}
{"sequence": "AGAGATTG", "PBM 8-mer E-score": 0.084}
{"sequence": "AGAGCTGA", "PBM 8-mer E-score": -0.211}
{"sequence": "AGGCGGAG", "PBM 8-mer E-score": -0.293}
{"sequence": "AGTCGGCA", "PBM 8-mer E-score": -0.183}
{"sequence": "GCGCAGCC", "PBM 8-mer E-score": -0.277}
{"sequence": "ATTGTTCC", "PBM 8-mer E-score": 0.0877}
{"sequence": "CCGTCTTA", "PBM 8-mer E-score": -0.0266}
{"sequence": "AATGAAGC", "PBM 8-mer E-score": 0.0469}
{"sequence": "CCCTGTCC", "PBM 8-mer E-score": -0.196}
{"sequence": "GACTTGAC", "PBM 8-mer E-score": -0.147}
{"sequence": "CAGCAAGA", "PBM 8-mer E-score": -0.03}
{"sequence": "CGCCATTA", "PBM 8-mer E-score": 0.175}
{"sequence": "CTGCAAAC", "PBM 8-mer E-score": 0.091}
{"sequence": "GCGGCAAA", "PBM 8-mer E-score": 0.0964}
{"sequence": "AATCCCCC", "PBM 8-mer E-score": -0.126}
{"sequence": "ATGTAATC", "PBM 8-mer E-score": 0.223}
{"sequence": "AATCGCTG", "PBM 8-mer E-score": -0.0494}
{"sequence": "CGAATGTA", "PBM 8-mer E-score": 0.177}
{"sequence": "TAGGAAAA", "PBM 8-mer E-score": 0.015}
{"sequence": "CTCCTAAA", "PBM 8-mer E-score": -0.112}
{"sequence": "CAATATTA", "PBM 8-mer E-score": 0.373}
{"sequence": "ACCGCTTA", "PBM 8-mer E-score": -0.0206}
{"sequence": "ACTTTCCG", "PBM 8-mer E-score": 0.119}
{"sequence": "AGCAATAC", "PBM 8-mer E-score": 0.201}
{"sequence": "ATCAATTA", "PBM 8-mer E-score": 0.319}
{"sequence": "TGTGTGAA", "PBM 8-mer E-score": 0.00419}
{"sequence": "ACCTTGGG", "PBM 8-mer E-score": -0.221}
{"sequence": "AGGTGGCG", "PBM 8-mer E-score": -0.0518}
{"sequence": "AATGTAGT", "PBM 8-mer E-score": 0.177}
{"sequence": "ACTTGAGA", "PBM 8-mer E-score": 0.0639}
{"sequence": "TCTACAAA", "PBM 8-mer E-score": 0.00942}
{"sequence": "AATCTTAT", "PBM 8-mer E-score": 0.188}
{"sequence": "AACATGTA", "PBM 8-mer E-score": 0.347}
{"sequence": "GTTTTCGA", "PBM 8-mer E-score": 0.086}
{"sequence": "AAAGTTCC", "PBM 8-mer E-score": 0.226}
{"sequence": "CACAAATC", "PBM 8-mer E-score": 0.0941}
{"sequence": "CATTGGTC", "PBM 8-mer E-score": -0.0818}
{"sequence": "AACGAAAG", "PBM 8-mer E-score": 0.224}
{"sequence": "GGGGTGGA", "PBM 8-mer E-score": -0.243}
{"sequence": "AGTTTATG", "PBM 8-mer E-score": 0.304}
{"sequence": "GAGCCGGC", "PBM 8-mer E-score": -0.205}
{"sequence": "TCATGAAA", "PBM 8-mer E-score": 0.108}
{"sequence": "CGTGAGCC", "PBM 8-mer E-score": -0.287}
{"sequence": "CACCTCTC", "PBM 8-mer E-score": -0.205}
{"sequence": "CTAAGATA", "PBM 8-mer E-score": 0.281}
